# Experimental data from PubChem BioAssay AID624296 (National Center for Advancing Translational Sciences (NCATS), 2012).
# The whole screen tested about 350,000 compounds, of which about 9,900 (2.8%) were called active. Inconclusive means that the source gave no clear call. Such entries were picked first, then a sample of the others. Calls follow the shape of the dose curve; as a rule, active = well fitted activation curve with a large enough effect; inconclusive = small, poorly fitted or top-dose-only effect; inactive = no such curve, though single readings can be large or run the other way. No potency is given beside an inconclusive call; the fits are too rough.
# Experiment: A quantitative high throughput screen for small molecules that induce DNA re-replication in MCF 10a normal breast cells. Also: nearly all actives have a fitted effect of over 50% in size.
# Conditions: MCF 10A DNA re-replication, Hoechst nuclear intensity, 48 h; series mostly up to 46.1 µM
# Potency is read from the fitted curve at half-maximal effect; tags tell the direction and shape of the fitted curve.
row,Structure (SMILES),Potency
1,Cc1c(C(=O)NCc2ccc3c(c2)OCO3)oc2ccccc12,"inconclusive [activator, partial curve, poor fit]"
2,C[C@]12CCC(=O)C[C@@H]1CC[C@@H]1[C@@H]2CC[C@]2(C)[C@@H](C(=O)COC(=O)CCC(=O)O)CC[C@@H]12,inactive
3,O=C(CSc1nnc(-c2ccc([N+](=O)[O-])cc2)o1)Nc1ccccn1,"inconclusive [activator, single point]"
4,CCOC(=O)c1cc2c(=O)n3cccc(C)c3nc2n(Cc2ccco2)c1=NC(=O)c1ccccc1,active: 8.2 µM
5,O=C(N/N=C/c1cccnc1)c1ccco1,inactive
6,Cc1ccc2nc(NCc3ccco3)c(C=NCc3ccco3)c(=O)n2c1,inactive
7,O=C(Cc1ccccc1)Nc1ccc2oc(-c3cccnc3)nc2c1,inactive
8,CCOc1ccc(N2CC(C(=O)Nc3ccccc3C(=O)NC3CC3)CC2=O)cc1 (stereo not drawn),inactive
9,CC(C)Cn1nc(C(=O)Nc2cccc(C(=O)NC3CC3)c2)c2ccccc2c1=O,inactive
10,CCCCCCCCS(=O)c1sc2nc3c(cc2c1N)CCCC3 (stereo not drawn),"inconclusive [activator, full curve]"
11,CCOC(=O)c1cccc(NC(=O)c2c(NCc3ccccc3)[nH]c(=O)[nH]c2=O)c1,active: 5.8 µM
12,CC1CCN(CCCCOc2ccc(Cl)cc2)CC1,"inconclusive [activator, partial curve]"
13,Clc1ccc2nc(C3CCN(Cc4nnnn4C4CCCCC4)CC3)[nH]c2c1,inactive
14,CCOC(=O)N1CCN(c2ncnc3c2[nH]c2ccc(F)cc23)CC1,inactive
15,S=C(c1ccc(-c2ccc(Cl)c(Cl)c2)o1)N1CCOCC1,"inconclusive [activator, partial curve, poor fit]"
16,O=C(Cc1ccccc1)Nc1cccc(S(=O)(=O)N2CCCCCC2)c1,"inconclusive [activator, single point]"
17,Clc1ccccc1CNc1ncnc2nc[nH]c12,inactive
18,CCOC(=O)COc1ccc(S(=O)(=O)c2ccc(OCC(=O)OCC)cc2)cc1,"inconclusive [activator, partial curve]"
19,O=C(C1CCN(Cc2ccc(Cl)cc2)CC1)N1CCN(C(c2ccccc2)c2ccccc2)CC1,"inconclusive [activator, single point]"
20,O=C(N/N=C/c1cc(Cl)ccc1O)C(=O)Nc1ccccc1OC(F)(F)C(F)F,"inconclusive [activator, single point]"
21,COc1ccc(CCNc2cc(C)nc3c(-c4ccccc4)c(C)nn23)cc1OC,inactive
22,O=C(COC(=O)c1cc[n+]([O-])cc1)Nc1ccc2c(c1)OCCO2,"inconclusive [activator, partial curve, poor fit]"
23,COc1cccc(C(=O)N2N=C(c3ccccn3)CC2(O)C(F)(F)F)c1 (stereo not drawn),"inconclusive [activator, single point]"

row,Structure (SMILES),Potency
1,OC(CN1CCN(Cc2ccc3c(c2)OCO3)CC1)c1c[nH]c2ccccc12 (stereo not drawn),"inconclusive [activator, single point]"
2,CCOCCCNC(=O)c1ccc2c(c1)OCO2,inactive
3,CC1=CC(=C(C#N)c2nc3ccccc3s2)C=C(C)N1CC1CCCO1 (stereo not drawn),active: 13 µM
4,CCCCN1C2=NC(c3ccccc3)CN2c2ccccc21 (stereo not drawn),"inconclusive [activator, full curve, poor fit]"
5,CC(C)c1ccc(NC(=O)Cn2ncn3c(cc4ccccc43)c2=O)cc1,"inconclusive [activator, single point]"
6,O=[N+]([O-])c1cc([N+](=O)[O-])c2oc(-c3ccccc3)c(Br)c2c1O,"inconclusive [activator, full curve, poor fit]"
7,COc1ccc(CN2CCN(CCCc3ccccc3)C(CCO)C2)cc1OC (stereo not drawn),inactive
8,Cc1noc(/C=C/N(C)C)c1S(=O)(=O)N1CCCC(C(=O)N2CCCCC2)C1 (stereo not drawn),"inconclusive [activator, single point]"
9,COc1cc(OC)cc(C(=O)OC(C)C(=O)NC2CCCc3ccccc32)c1 (stereo not drawn),"inconclusive [activator, partial curve, poor fit]"
10,COC(=O)c1c(-c2cccs2)csc1NC(=O)CN1CCOCC1,"inconclusive [activator, single point]"
11,CCCCCCc1cc2cc(/C(N)=N/NC(=O)c3ccncc3)c(=O)oc2cc1O,active: 1.3 µM
12,Cc1nn(C)cc1/C=C/C(=O)c1ccccc1,inactive
13,CCOc1ccccc1NC(=O)CSc1nnc(C2CC2)n1CC,inactive
14,CCOc1cc(C(=O)Nc2ccc(S(=O)(=O)NC3=NCCCCC3)cc2)cc(Br)c1OC,"inconclusive [activator, single point]"
15,Cc1ccc(C)c(Cn2c3ccccc3c3cnn(CC(=O)NCCCN4CCOCC4)c(=O)c32)c1,inactive
16,O=C1CCCc2nc3c(cc21)C(O)Oc1c-3ccc2ccccc12 (stereo not drawn),"inconclusive [activator, partial curve, poor fit]"
17,CN(C)CC(=O)c1c(N)n(Cc2ccccc2)c(=O)n(C)c1=O,inactive
18,Cc1[nH]c2ccccc2c1C(=O)/C=C/c1ccccc1Cl,"inconclusive [activator, single point]"
19,CCOc1ccc(C(c2c(C)[nH][nH]c2=O)c2c(C)[nH][nH]c2=O)cc1OCC,"inconclusive [activator, single point]"
20,Cn1ncc(Br)c1NC(=O)Nc1ccc(OC(F)(F)F)cc1,"inconclusive [activator, partial curve, poor fit]"
21,CCn1c(CC(=O)Nc2cccc(OC)c2)nnc1SCC(=O)N1CCN(c2ccccc2)CC1,inactive
22,CC(C)(C)OC(=O)N[C@@H](C(=O)OC(C)(C)C)c1ccc2ccccc2c1,inactive
23,C[C@@H](C(=O)Nc1ccc2ccccc2c1)[C@@H]1C[C@@]1(C)[C@@H](NC(=O)OCc1ccccc1)c1ccccc1,"inconclusive [activator, partial curve, poor fit]"

row,Structure (SMILES),Potency
1,Cc1nnsc1S(=O)c1ccc(Cl)c(Cl)c1 (stereo not drawn),"inconclusive [activator, partial curve, poor fit]"
2,CCCCn1c(SCC(=O)Nc2ccc3c(c2)OCCO3)nnc1C(CC)N(C)C (stereo not drawn),inactive
3,COc1ccccc1N1CCN(c2ccc3cc(S(=O)(=O)N4CCCCC4)ccc3n2)CC1,"inconclusive [activator, partial curve, poor fit]"
4,Cc1cccc(C)c1NC(=O)c1nc(S(=O)(=O)Cc2ccccc2)ncc1Cl,"inconclusive [activator, single point]"
5,CC(C)OC(=O)c1cc2c(ccn2C)n1CC(=O)N(Cc1ccccc1)c1ccccc1,active: 18.4 µM
6,Cc1cccc(C)c1OCC(=O)Nc1oc(-c2ccccc2)c(-c2ccccc2)c1C#N,"inconclusive [activator, single point]"
7,CCOC(=O)c1c(C)[nH]c(C2=NNC(=Nc3ccc(OCC)cc3)SC2)c1C,"inconclusive [activator, single point]"
8,c1ccc(-c2oc3ncnc(NCCCn4ccnc4)c3c2-c2ccccc2)cc1,"inconclusive [activator, single point]"
9,C[C@@]12C(=O)Nc3cc(Cl)ccc3C(=O)N1[C@H]1c3cc(Cl)ccc3OC[C@@H]1[C@@H]2c1ccccc1,"inconclusive [activator, full curve]"
10,COc1cc(OC)c(C2=NOC(C(=O)NCc3cccs3)C2)cc1Cl (stereo not drawn),"inconclusive [activator, single point]"
11,N#Cc1c(-c2ccccc2Cl)c2c([nH]c1=O)-c1ccccc1OC2,active: 4.11 µM
12,C/C(=N\NC(=S)NCCc1ccccc1)c1ccc(Cl)cc1Cl,"inconclusive [activator, single point]"
13,O=C(COC(=O)c1ccc2c(c1[N+](=O)[O-])C(=O)c1ccccc1C2=O)NC1CC1,"inconclusive [activator, single point]"
14,O=C(CN1CCC(NC(=O)Nc2ccc(F)cc2)CC1)Nc1ccccc1[N+](=O)[O-],"inconclusive [activator, partial curve, poor fit]"
15,CCCc1cc(NC(=O)CCl)n(-c2ccccc2)n1,"inconclusive [activator, single point]"
16,CN1C(=O)/C(=C/c2ccc(OCc3ccc(F)cc3)cc2)N(C)C1=S,"inconclusive [activator, single point]"
17,Fc1ccc2c(c1)c1n[nH]c(=S)nc1n2CCc1ccccc1,inactive
18,CCc1ccc2nc(-c3cccc(C)c3)nc(SCC(=O)NCC3CCCO3)c2c1 (stereo not drawn),inactive
19,Cc1nc(NC(=O)C23CC4CC(CC(C4)C2)C3)sc1Cc1ccc2c(c1)OCO2,"inconclusive [activator, partial curve]"
20,COc1ccc(C(=O)CSc2nn3c(=O)c(C(C)(C)C)nnc3s2)cc1,"inconclusive [activator, single point]"
21,CN(C)S(=O)(=O)c1cccc(NC(=S)NC23CC4CC(CC(C4)C2)C3)c1,"inconclusive [activator, single point]"
22,COC(=O)COc1cccc2c(=O)n(CC(=O)Nc3ccc4c(c3)OCCO4)ccc12,"inconclusive [activator, partial curve, poor fit]"
